Assay results as given in the supplement of paper PMC3334620.
The full ranking holds about 33,000 sequences; the median of “E-score (-0.5 to 0.5)” is about -0.011, and the highest 2% start at about 0.28. The list shows a part of the results.

molecular target: T1, Gcr1 (UniProt P07261); test: PBM E-score (8-mer binding enrichment) (E-score (-0.5 to 0.5)); higher = stronger / more preferred TF binding; most listed sequences are background and not binding sites; conditions: protein concentration: 100 nM; construct: GST-full length
T1 sequence: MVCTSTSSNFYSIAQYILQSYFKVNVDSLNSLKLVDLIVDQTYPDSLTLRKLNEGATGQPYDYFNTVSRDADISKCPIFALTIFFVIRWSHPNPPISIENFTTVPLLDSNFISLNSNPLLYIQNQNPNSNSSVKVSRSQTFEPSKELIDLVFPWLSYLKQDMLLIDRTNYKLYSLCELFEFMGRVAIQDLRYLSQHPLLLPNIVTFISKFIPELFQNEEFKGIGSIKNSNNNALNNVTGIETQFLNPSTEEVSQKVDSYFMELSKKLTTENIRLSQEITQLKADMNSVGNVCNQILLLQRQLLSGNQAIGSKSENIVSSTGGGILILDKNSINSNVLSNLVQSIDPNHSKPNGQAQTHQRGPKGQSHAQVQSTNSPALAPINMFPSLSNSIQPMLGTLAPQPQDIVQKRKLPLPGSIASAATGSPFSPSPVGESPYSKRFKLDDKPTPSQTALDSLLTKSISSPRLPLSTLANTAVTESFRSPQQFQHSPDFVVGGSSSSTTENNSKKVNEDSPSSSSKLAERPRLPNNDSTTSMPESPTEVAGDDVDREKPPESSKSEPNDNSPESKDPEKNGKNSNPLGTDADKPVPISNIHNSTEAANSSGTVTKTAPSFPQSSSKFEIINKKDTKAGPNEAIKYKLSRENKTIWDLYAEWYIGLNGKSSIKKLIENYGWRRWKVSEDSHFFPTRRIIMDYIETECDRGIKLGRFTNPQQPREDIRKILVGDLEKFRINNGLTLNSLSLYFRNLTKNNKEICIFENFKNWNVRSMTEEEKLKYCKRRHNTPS
Experimental: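 Universal 'all 10-mer' protein binding microarrays (Agilent AMADID 015681) probed with GST-tagged S. cerevisiae TFs (full-length or DBD) made by in vitro transcription/translation (PURExpress), about 100-200 nM. Bound TF was detected with fluorescent anti-GST. Each ungapped 8-mer (which stands for itself and its reverse complement) is scored by the PBM enrichment score (E-score), a modified Wilcoxon-Mann-Whitney statistic from -0.5 to +0.5, computed with the Universal PBM Analysis Suite. Scale: above 0.35 generally sequence-specific binding.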

Sequence	PBM E-score
CAAATCCC	-0.112
CCTAAACG	0.113
GCTCCCTA	0.104
GCTCGGAA	0.13
GTAAAAAC	0.02
GCGCGAAA	0.0513
ACCGAACG	0.0306
AGGCTACG	-0.275
AGTTTTAA	0.0326
CCCTAGAC	-0.126
AGTCCCTG	-0.0505
AATGTAGG	-0.0931
CGCTGTTC	0.0481
CTGTTTGA	-0.0982
GACTTCGC	0.201
AGCTGTGG	0.177
GTGACCGA	-0.0657
GACCGACC	-0.215
GGTAGACC	-0.317
AGTACGTA	-0.076
CAAAGTGG	0.00098
GTTCGTGA	0.0206
AGCGCCCT	0.236
AAGAGGCC	-0.0271
CCGACTAC	-0.0185

Sequence	PBM E-score
ATCGACGA	-0.233
CACCACTG	0.167
CTTGCGCC	-0.169
CAGGTCCA	-0.019
ACGAAGCG	0.0293
GCCATTCA	-0.0672
AGCTGCGA	0.244
GCTGATGA	-0.0464
ATTCTTTG	0.127
ATTAAGGA	0.0697
ATCCCCAC	0.122
ATGTCTTC	-0.0642
CCAGGGAC	-0.161
ACCCAAAC	0.145
CTAGTGAA	0.0743
AATCATAG	0.00579
ATATTGAA	0.0925
CAAACGAG	-0.112
CAACAGCA	0.077
CAGCGGAG	-0.0562
ACCTTCGC	-0.0588
CTCTAATC	-0.0195
CACGAGTC	-0.0225
GACCGGAC	-0.183
AAAGCCCG	-0.111

Sequence	PBM E-score
ACAGACCC	-0.11
TACCTGAA	0.0937
AACAAGAA	0.229
AGTGGATG	0.394
AATTACCG	0.19
AACATTCG	-0.0406
GTTCAGAA	0.0385
TCCGCGCA	-0.105
AGATGGCA	0.0969
ACTCAGAT	0.05
ACGATTAA	0.107
ACCTGAGC	0.183
ACGGCCTA	-0.202
AAAGGTGG	0.0257
CGGTGCCA	0.00263
CTGCGCGC	0.173
GTATTACA	0.077
AACTATCA	-0.0226
ACCCGACT	0.0284
GCGAATCC	0.235
AAGCCGAG	-0.0118
CGTACATA	-0.0914
ACGAGAGG	-0.238
TACTTCTA	0.0389
AATACAGA	-0.0124

Sequence	PBM E-score
GGCTGACA	-0.274
CATTCGGC	0.0681
TCTATTCA	0.0799
AGCGGTCA	0.00719
AGCAAGAT	-0.00413
AACGGGTC	-0.122
CTCTTGAC	-0.178
CTCCCTTC	-0.185
GACGCGAC	0.104
GTTTTGTA	0.0369
GACTTGGC	-0.00593
GAGCCTTA	-0.217
ATGACAAG	-0.124
CGTCGGCC	-0.282
CCCTCGAC	-0.0804
CGCGGGGA	0.0382
ACCCGTAA	-0.0844
AATACTAT	-0.00997
GCAAAACA	0.038
GTCATTCA	-0.187
GTACGTAC	-0.16
AGGGTGTC	-0.0464
CAGGAGAG	-0.168
AGAGCAAA	0.108
CCAAGAGG	0.00028

Sequence	PBM E-score
AGAGATAC	0.147
ATCTATCA	-0.0466
CTGCAACA	0.13
CCTGTGTA	0.0704
AAGATATA	0.0504
ATTATGGG	0.115
ACTTCTGC	0.0872
CATGACGC	-0.00593
CCCCCTCG	-0.309
GTCTGCTA	0.0506
ATAGAATA	0.108
AAGGAGGC	0.0163
CAAGACCA	-0.00065
CGGCTCTA	0.0415
ATGTACCG	-0.0285
AAGGAGTG	0.143
ACCAATAT	0.0804
CAGACTAA	-0.169
AAGAGACG	-0.0377
AGTACGCA	-0.0458
CTTACCCC	-0.052
ACTTGTTG	0.137
CTCAGAAA	-0.133
AACCGTGA	-0.139
ACACACGC	0.121

Sequence	PBM E-score
CGCCAAGC	-0.00059
ACCTCGCA	-0.0887
AACAGCAA	0.017
CTCGGCGC	0.159
CACGGTGA	0.00799
GAGACCTC	-0.135
CAGCATAG	-0.0201
CAGAGTCG	0.0294
AGGTCTTA	-0.196
ATGTAAAG	-0.0534
CGCCATAG	-0.14
ATAGCACC	0.159
CGGCCATA	-0.242
ACGCAATG	-0.0922
CTAGGCCC	0.025
CATAGCCA	-0.2
AGTCGCTA	0.0325
GATTACAC	0.0333
ACCTTCAC	-0.187
ATATTATC	0.159
GCAAGGGA	-0.144
AGCGGGTG	0.129
ACGTCACC	-0.0216
CGATAATC	0.07
ATGTCCAC	0.0849

Sequence	PBM E-score
ATCCTATA	0.237
GACCGTAC	-0.315
CACTGAAA	0.138
CAAGTCCC	-0.29
GTGGGACA	-0.267
ACGCGGGC	-0.00163
AATACGCA	0.18
AGGTATTC	0.0478
ACACCAGG	-0.205
CTCGCTCC	-0.0198
AAATCAAC	0.00896
CGAGCCAA	-0.00353
CCACGGAC	-0.14
GTCGCCTA	0.0571
AGCGAGCA	-0.108
CCTGAGAA	0.0359
TCAGTCGA	0.0217
AAGAAACG	-0.134
CCCGTGTA	-0.0398
CCTGCCTA	0.00507
AGTTGTTG	0.0285
CAGAGCGG	-0.00201
